Assay results published in PubChem BioAssay AID504832 (National Center for Advancing Translational Sciences (NCATS), 2011).
In all, about 310,000 compounds went through this assay and about 18,000 (5.8%) were called active. The inconclusive results got no clear call from the source; some entries with a clear call stand among them for comparison. Calls follow the shape of the dose curve; as a rule, active = well fitted inhibition curve with a large enough effect; inconclusive = small, poorly fitted or top-dose-only effect, or another doubt; inactive = no such curve, though single readings can be large or run the other way. No potency is given beside an inconclusive call; the fits are too rough.

assay: Primary qHTS for delayed death inhibitors of the malarial parasite plastid, 48 hour incubation; conditions: P. falciparum luciferase growth in erythrocytes; series mostly up to 28.7 µM; activity change, negative = inhibition: at the top concentration
In short: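 Growth was read as firefly luciferase luminescence after a 48 h, 37 C, 5% CO2 exposure of compounds to reporter-bearing P. falciparum cultures (0.1% parasitemia, 2% hematocrit final) in Albumax-supplemented RPMI 1640.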
% is scaled to controls: 0 for no effect and ±100 for the full control effect; potency is read from the fitted curve at half-maximal effect; tags tell the direction and shape of the fitted curve.

SMILES	Potency	activity change, negative = inhibition
O=C(CSc1nnc(-c2ccco2)n1Cc1ccccc1)NC(=O)NCc1ccccc1	inconclusive [inhibitor, partial curve]	
CCCCCN1C=CC=C/C1=C\C=C(C#N)C#N	inconclusive [inhibitor, full curve, poor fit]	
CCCCn1c(=NC(=O)c2ccco2)c(C(=O)OCC)cc2c(=O)n3cccc(C)c3nc21	active: 11.7 µM	
CC1(C)C2CCC1(CS(=O)(=O)NC(CC(=O)O)c1cccc(Br)c1)C(=O)C2 (stereo not drawn)		inactive: 4.34%
CN1CCN(C2Cc3ccccc3Sc3ccc(Cl)cc32)CC1 (stereo not drawn)	active: 13.1 µM	
CNc1ccccc1C(C)(C)c1cc(-c2ccco2)n[nH]1	inconclusive [inhibitor, single point]	
CCOC(=O)c1c([N+](=O)[O-])c(C)[nH]c(=O)c1C#N		inactive: 72.6%
CCN1CCN(S(=O)(=O)c2ccc(Cl)c(C(=O)Nc3nnc(C)s3)c2)CC1	inconclusive [inhibitor, single point]	
CC(C)Cn1c(SC(C)C(=O)NCC2CCCO2)nc2ccc(Cl)cc2c1=O (stereo not drawn)	inconclusive [inhibitor, partial curve, poor fit]	
CCOc1ccc(C(=O)C(CN2CCOCC2)c2ccccc2)cc1 (stereo not drawn)	inconclusive [inhibitor, single point]	
COc1ccc(/C=N/Nc2nc(N3CCCC3)nc(N3CCCC3)n2)cc1		inactive: -5.26%
C=CCNC(=O)Cc1c(OC)ccc2cc(Br)ccc12		inactive: 33.4%
CCc1ccc(C(=O)OCC(=O)c2c(N)n(CC(C)C)c(=O)n(C)c2=O)cc1	inconclusive [inhibitor, full curve, poor fit]	
CCOc1ccc(NC(=S)N(CCc2c(C)[nH]c3ccc(C)cc23)Cc2cccnc2)cc1	inconclusive [inhibitor, full curve]	
CCN(c1ccccc1)S(=O)(=O)c1cc(C(=O)OC(C)C(=O)Nc2ccc3c(c2)OCCO3)ccc1C (stereo not drawn)	inconclusive [inhibitor, partial curve, poor fit]	
Cc1ccc(-n2c(C)cc(C(=S)N3CCOCC3)c2C)cc1C	inconclusive [inhibitor, partial curve, poor fit]	
Cc1ccc(S(=O)(=O)N2CCCC2)cc1C(=O)NCc1ccccn1	inconclusive [inhibitor, full curve, poor fit]	
O=C(c1ccccc1C(=O)N1CCN(c2ccc(F)cc2)CC1)N1CCN(c2ccc(F)cc2)CC1	inconclusive [inhibitor, single point]	
CCOc1ccc(-n2c(SCC(=O)NCc3ccco3)nnc2-c2c[nH]c3ccccc23)cc1	inconclusive [inhibitor, single point]	
COc1ccc(N2CCN(Cc3nc4scc(-c5cccs5)c4c(=O)[nH]3)CC2)cc1	inconclusive [inhibitor, partial curve, poor fit]	
Cc1ccc(S(=O)(=O)Nc2ccc(-c3nc4ccc(C)cc4s3)cc2)cc1		inactive: 50.3%
COc1ccc(-c2c(C)nn3c(N4CCOCC4)cc(C)nc23)cc1OC	inconclusive [inhibitor, partial curve]	

SMILES	Potency	activity change, negative = inhibition
O=C(CSc1nnc(COc2cccc3cccnc23)o1)c1ccc(F)cc1	inconclusive [inhibitor, partial curve, poor fit]	
O=C(NC1=NCCS1)c1cc(-c2cccnc2)nc2ccccc12	inconclusive [inhibitor, single point]	
Oc1ccc(C[C@H]2CNCCN2CCCCC2CCCCC2)cc1	active: 8.28 µM	
Cc1nn(-c2ccccc2)c(N)c1C1(O)C(=O)Nc2ccccc21 (stereo not drawn)		inactive: 45.4%
C=CCn1c(=S)[nH]c2nc3c(cc2c1=O)CCCC3		inactive: 8.61%
COc1ccc(S(=O)(=O)N2CCN(C)CC2)cc1NC(=O)c1ccccc1F		inactive: 14.3%
COc1ccccc1-n1c(/C=C/c2ccccn2)nc2ccccc2c1=O	inconclusive [inhibitor, single point]	
CC(C)[C@H]1C=C(C(=O)O)O[C@@H](OCCCCO)C1		inactive: -1.16%
Cc1cc(Br)cc(/C=N/NC(=O)c2ccc3c(c2)OCO3)c1O	active: 13.1 µM	
COC(=O)c1c(NC(=O)C(=O)N2CCCC2)sc2c1CC(C)(C)OC2	inconclusive [inhibitor, single point]	
CC(C)c1ccc(CN(C(=O)C2COc3ccccc3O2)C2CCS(=O)(=O)C2)cc1 (stereo not drawn)	inconclusive [inhibitor, single point]	
O=[N+]([O-])c1cc([N+](=O)[O-])c(Oc2ccc(Cl)c3cccnc23)cc1NN1CCCCC1	inconclusive [inhibitor, full curve, poor fit]	
COc1cc(C(C(=O)NC2CCCC2)N(C(=O)c2snc(C(N)=O)c2N)c2ccccc2)cc(OC)c1OC (stereo not drawn)	inconclusive [inhibitor, partial curve]	
COC(=O)c1cccc(C23CC4(C2)[C@H](CN(Cc2cccnc2)[C@@H]4c2ccccc2)C3c2ccc(Cl)nc2)c1 (stereo partly drawn)	active: 13.1 µM	
CCOC(=O)c1oc2ccccc2c1COC(=O)CNC(=O)c1ccccc1OC	inconclusive [inhibitor, single point]	
O=S1(=O)NC(=NCC(c2ccco2)N2CCCCC2)c2ccccc21 (stereo not drawn)	inconclusive [inhibitor, partial curve]	
CCOc1ccccc1N(CC(=O)Nc1ccc(OC)c(OC)c1)S(=O)(=O)c1ccccc1	inconclusive [inhibitor, partial curve, poor fit]	
COc1ccc(N2CCN(C(=O)Nc3ccc(S(=O)(=O)N(C)C)cc3)CC2)cc1	inconclusive [inhibitor, single point]	
Cc1ccc(C(C)C)c(OCC(=O)NN=C(CCl)CCl)c1		inactive: -26.7%
CCOc1ccc2nc(C(C)O)[nH]c2c1 (stereo not drawn)		inactive: 5.29%
CSc1ccc(S(=O)(=O)NC(C)c2ccccc2)cc1 (stereo not drawn)		inactive: 8.53%
